Over roughly 33,000 sequences, “E-score (-0.5 to 0.5)” has its median near -0.04; the highest 2% begin near 0.36. The list shows a part of the results.
Molecular target: T1, Hmlalpha2 (UniProt P0CY09)
T1 sequence: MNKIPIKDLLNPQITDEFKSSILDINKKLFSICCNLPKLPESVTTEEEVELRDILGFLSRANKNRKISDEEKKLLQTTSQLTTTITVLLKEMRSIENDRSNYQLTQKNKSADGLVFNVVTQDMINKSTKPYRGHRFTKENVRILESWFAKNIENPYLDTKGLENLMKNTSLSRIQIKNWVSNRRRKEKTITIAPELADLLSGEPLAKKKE
Assay: PBM E-score (8-mer binding enrichment) (E-score (-0.5 to 0.5)); higher = stronger / more preferred TF binding; most listed sequences are background and not binding sites
Conditions: protein concentration: 200 nM; construct: GST-full length
How it was run: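 Detection of bound protein used fluorescent anti-GST, with scans normalised by masliner. The proteins were GST-tagged yeast transcription factors applied at about 100-200 nM to universal all-10-mer Agilent arrays made double-stranded by primer extension. Each ungapped eight-base word, pooled with its reverse complement, was scored with an E-score from the Universal PBM Analysis Suite.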

Sequence	PBM E-score
GTGGCAAA	-0.174
ATGGGGGG	-0.176
CTCTCTAA	-0.209
CTGAGCCC	-0.22
ATCTCCTA	-0.148
CAATAGAA	-0.133
AGGTCTCC	-0.285
ACTACACC	0.166
ACCCGATC	-0.0242
CACCTAGG	-0.14
AAGTGCAG	-0.155
ACAACTGT	0.137
CTAGCATC	-0.0105
AAGAGCTC	-0.0309
CGGGACGC	-0.184
AGTCAATC	-0.0505
AAGAGGGT	-0.0959
ACTGCGAG	-0.206
AGTGCCTA	-0.0106
AATTTGGG	0.00361
ATCCCAAT	0.00934
AACTCGAC	0.13
AGAGCGCA	-0.342
ATGTATAG	0.362
AGTTCGTC	0.117

Sequence	PBM E-score
CTGCGTCA	-0.0049
CACCGGCA	-0.19
CGCGTCCC	-0.0711
ATTGCCTA	0.0496
ACTGGGCT	-0.117
GTTAAGGA	0.175
AGTAATTG	0.215
AGACTGAC	-0.085
CTTGCCTA	-0.112
GCACGCGC	0.0403
ACGAGATC	-0.0412
AGGCTTCG	-0.16
ACGCTCCG	-0.208
GATCTTAA	-0.00066
CTTCAAGA	0.141
GACACGTC	0.2
AGCGAGCG	0.0472
GATATTAA	0.0587
GATCTTAC	0.108
GCTGAAGC	-0.14
CTCTCTTC	-0.318
AAGCTCAA	0.145
AACTTTAG	0.19
CGAGGCGA	-0.229
AGCCCTCC	-0.312

Sequence	PBM E-score
AATACACG	0.473
AGTTACGA	0.173
CGACATGC	0.311
AGGCGGAC	-0.27
ACATAGAG	0.237
ACGTCTGA	0.0238
CAGGAAGA	-0.0764
CTGACACC	-0.192
ACAATGCT	0.154
ACGGACCA	0.118
CTCCTATA	-0.164
CCACAATC	-0.238
ATCATATA	0.154
CGTGCCTC	-0.119
AGTCCGGC	-0.0446
GAACTGAA	0.00892
TAAGGACA	0.114
GCACTTAC	0.0534
AGCCGAAA	-0.128
CTCCCGTA	-0.272
GGCTTGCA	0.133
CGCTGACA	0.0535
AATTTACC	0.12
GTGCTAAC	0.0449
TGGATTAA	-0.0387

Sequence	PBM E-score
GGTAGAAC	-0.0525
ACATTGGT	0.0705
GCCCCCAA	-0.222
ACTATAAG	0.0547
GAGGTGGC	-0.276
AAGATGAT	0.11
AATGACTA	-0.0193
CGACCGCA	-0.186
ATGTGGGG	-0.234
AGCTGTAG	-0.0733
ACGTGACT	0.00927
TGGTTCAA	-0.0554
CCTCGCTC	-0.0593
CCTAGCAA	-0.0638
GACACGAC	0.394
CAAAGAGG	-0.144
GATTCATA	-0.0484
AATCGACT	0.0207
CAATAGCC	0.0346
CTAGGAGC	-0.218
CTCGAATA	-0.165
GAGTTGCA	-0.0333
AAAGAATT	0.0942
ATGCACCG	-0.12
CCGCACAA	-0.255

Sequence	PBM E-score
CTAAGGCA	-0.116
ACACGCGC	0.304
CGTCCCAC	0.0414
AATCGTAG	0.0806
AAGGTAGA	0.0007
AGATTTAA	0.182
GTTGACAA	0.25
CTGCCCAA	-0.138
CACAGGTG	-0.0488
AACTACCC	-0.129
ATACGTGC	0.263
TACAAGAA	0.337
GTAAGCAC	0.119
CCGGGCTA	-0.21
CTAGTCAC	-0.123
CCTGCAAA	-0.25
CAGTGACC	-0.302
GCTACTGA	-0.0621
GAAAGAAA	0.0793
ACTCCCGA	-0.117
AACGGTAA	0.0273
GTAGGGTA	0.0755
AGCTATCA	-0.0383
GTCCAGAC	-0.23
AGTCTACG	-0.0918

Sequence	PBM E-score
CAGGGTAG	-0.236
GGTCCACC	-0.27
AGCAACAC	0.26
AGCAAAAC	0.0847
AATGATGC	0.0435
AATCAGTG	-0.113
AGTTTGGG	-0.147
AGCGGATC	-0.136
AACGTGAC	0.0593
CGGATTGA	-0.0984
ATTGACGG	-0.0674
CGGTAGAA	-0.175
CCGTTAAG	-0.0932
TGCAATAA	0.156
GATCAGCC	-0.265
CATGTCCC	0.0423
CGCATCTA	0.0697
AAATTATG	0.0141
ACCCGCTA	0.0482
ATTCTGTA	0.114
AGAAGTAA	0.113
CGACACCC	-0.168
CTGCCATC	-0.239
AAGTGGTC	-0.174
GAGGTACC	-0.293

Sequence	PBM E-score
ACCTGGGA	0.0291
CAGTTTAA	0.208
AATGCAAC	0.08
CTTTTGGC	-0.169
TAATTCGA	0.121
ATACTTAA	0.264
ATTTCAGC	-0.11
CTGACATC	-0.0813
CCGCAGTA	-0.0882
GTAAGCAA	0.0319
ACATTAGT	0.196
AATACTTA	0.174
TACGAGGA	-0.0647
AGAGGTCG	-0.0701
AGCTTTTC	0.0531
CTCGAGTA	0.13
AGGTTACG	-0.0602
CTTGTAAC	0.36
GGCGCGCA	-0.149
ATGCTTTA	0.169
TCCTGCGA	-0.123
CGGAGGTA	-0.16

Source: the supplement of paper PMC3334620
